Experimental findings from paper PMC5763115, “Nesprin-2 Interacts with Condensin Component SMC2” (International Journal of Cell Biology, 2017) are described below.

Sequences of proteins named here, by UniProt entry; tags and fusion partners are left off.
UniProt O95347: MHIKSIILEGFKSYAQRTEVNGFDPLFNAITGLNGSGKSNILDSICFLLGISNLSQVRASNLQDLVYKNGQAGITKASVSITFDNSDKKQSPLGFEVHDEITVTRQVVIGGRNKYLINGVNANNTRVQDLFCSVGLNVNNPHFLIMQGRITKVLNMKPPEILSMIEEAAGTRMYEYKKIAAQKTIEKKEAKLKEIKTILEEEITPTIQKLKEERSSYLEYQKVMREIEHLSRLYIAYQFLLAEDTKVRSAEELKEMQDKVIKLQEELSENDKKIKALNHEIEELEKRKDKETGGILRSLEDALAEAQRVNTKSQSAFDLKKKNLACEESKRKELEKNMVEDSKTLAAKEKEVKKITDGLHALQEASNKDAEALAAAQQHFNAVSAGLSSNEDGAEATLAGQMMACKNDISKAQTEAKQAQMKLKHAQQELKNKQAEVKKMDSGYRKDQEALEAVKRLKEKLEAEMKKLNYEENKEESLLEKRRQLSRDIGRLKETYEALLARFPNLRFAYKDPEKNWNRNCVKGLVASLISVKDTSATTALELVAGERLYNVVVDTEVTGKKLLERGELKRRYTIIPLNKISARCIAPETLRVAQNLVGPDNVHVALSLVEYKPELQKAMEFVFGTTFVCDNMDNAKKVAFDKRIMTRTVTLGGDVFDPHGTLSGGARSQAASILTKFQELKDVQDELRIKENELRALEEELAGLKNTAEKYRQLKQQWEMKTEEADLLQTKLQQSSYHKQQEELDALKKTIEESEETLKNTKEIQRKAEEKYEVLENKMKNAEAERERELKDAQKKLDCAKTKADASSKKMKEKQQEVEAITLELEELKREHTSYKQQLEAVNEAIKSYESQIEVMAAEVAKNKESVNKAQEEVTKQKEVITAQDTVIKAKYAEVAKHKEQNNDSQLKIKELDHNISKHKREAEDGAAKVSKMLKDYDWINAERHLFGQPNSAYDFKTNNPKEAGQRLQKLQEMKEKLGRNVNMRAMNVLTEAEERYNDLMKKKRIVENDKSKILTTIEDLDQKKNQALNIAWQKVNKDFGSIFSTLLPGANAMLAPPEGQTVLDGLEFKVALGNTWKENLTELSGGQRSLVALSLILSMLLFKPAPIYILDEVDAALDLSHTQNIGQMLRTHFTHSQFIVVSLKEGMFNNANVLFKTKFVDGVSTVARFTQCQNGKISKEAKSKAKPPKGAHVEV
UniProt Q15003: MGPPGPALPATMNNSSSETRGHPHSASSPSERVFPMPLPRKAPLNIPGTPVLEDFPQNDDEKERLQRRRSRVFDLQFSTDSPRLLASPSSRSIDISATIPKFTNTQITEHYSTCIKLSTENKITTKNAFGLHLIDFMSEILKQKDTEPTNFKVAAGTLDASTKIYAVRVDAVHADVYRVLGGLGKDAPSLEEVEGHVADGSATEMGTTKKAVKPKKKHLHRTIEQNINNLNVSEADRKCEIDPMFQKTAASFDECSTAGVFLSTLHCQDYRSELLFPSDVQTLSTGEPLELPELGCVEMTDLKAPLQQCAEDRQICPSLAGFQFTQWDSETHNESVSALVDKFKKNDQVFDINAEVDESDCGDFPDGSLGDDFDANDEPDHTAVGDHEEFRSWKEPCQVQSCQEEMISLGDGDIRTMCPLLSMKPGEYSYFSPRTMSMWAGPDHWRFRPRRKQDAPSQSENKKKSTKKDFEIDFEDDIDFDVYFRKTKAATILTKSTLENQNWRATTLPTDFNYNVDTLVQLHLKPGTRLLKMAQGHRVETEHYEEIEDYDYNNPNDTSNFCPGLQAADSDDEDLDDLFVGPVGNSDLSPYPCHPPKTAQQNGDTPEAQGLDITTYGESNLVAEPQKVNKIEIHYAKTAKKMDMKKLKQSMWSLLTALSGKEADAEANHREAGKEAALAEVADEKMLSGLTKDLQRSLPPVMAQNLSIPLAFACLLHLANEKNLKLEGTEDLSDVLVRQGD
UniProt Q9UQE7: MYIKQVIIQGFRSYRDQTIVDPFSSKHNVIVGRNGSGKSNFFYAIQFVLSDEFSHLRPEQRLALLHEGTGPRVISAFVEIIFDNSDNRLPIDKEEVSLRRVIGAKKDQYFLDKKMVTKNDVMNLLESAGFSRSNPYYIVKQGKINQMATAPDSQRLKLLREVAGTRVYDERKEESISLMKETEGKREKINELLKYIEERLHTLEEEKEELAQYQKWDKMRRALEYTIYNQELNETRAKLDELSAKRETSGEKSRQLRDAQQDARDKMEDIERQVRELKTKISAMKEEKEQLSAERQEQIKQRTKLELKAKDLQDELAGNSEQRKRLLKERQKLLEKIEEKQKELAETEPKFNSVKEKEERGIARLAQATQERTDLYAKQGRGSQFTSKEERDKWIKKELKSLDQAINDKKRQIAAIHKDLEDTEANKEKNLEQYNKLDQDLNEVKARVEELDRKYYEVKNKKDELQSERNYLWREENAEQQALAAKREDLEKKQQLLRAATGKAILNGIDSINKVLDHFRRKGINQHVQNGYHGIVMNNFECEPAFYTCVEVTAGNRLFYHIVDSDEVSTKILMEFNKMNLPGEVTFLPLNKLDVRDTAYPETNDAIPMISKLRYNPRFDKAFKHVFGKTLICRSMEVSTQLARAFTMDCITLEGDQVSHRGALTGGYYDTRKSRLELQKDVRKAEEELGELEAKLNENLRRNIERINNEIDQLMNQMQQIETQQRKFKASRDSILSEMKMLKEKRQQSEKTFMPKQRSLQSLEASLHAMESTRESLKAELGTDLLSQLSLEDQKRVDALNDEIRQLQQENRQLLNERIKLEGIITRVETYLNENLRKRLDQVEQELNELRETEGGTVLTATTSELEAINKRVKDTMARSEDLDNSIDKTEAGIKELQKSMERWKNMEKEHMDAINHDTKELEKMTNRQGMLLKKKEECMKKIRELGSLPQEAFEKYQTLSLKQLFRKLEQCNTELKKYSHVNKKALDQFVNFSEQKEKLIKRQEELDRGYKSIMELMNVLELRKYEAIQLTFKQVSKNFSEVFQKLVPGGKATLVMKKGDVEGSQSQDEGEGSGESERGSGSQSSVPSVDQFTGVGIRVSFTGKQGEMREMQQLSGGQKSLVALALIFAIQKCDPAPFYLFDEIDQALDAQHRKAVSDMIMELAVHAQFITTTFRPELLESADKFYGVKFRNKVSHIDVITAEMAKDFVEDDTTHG
UniProt Q9NTJ3: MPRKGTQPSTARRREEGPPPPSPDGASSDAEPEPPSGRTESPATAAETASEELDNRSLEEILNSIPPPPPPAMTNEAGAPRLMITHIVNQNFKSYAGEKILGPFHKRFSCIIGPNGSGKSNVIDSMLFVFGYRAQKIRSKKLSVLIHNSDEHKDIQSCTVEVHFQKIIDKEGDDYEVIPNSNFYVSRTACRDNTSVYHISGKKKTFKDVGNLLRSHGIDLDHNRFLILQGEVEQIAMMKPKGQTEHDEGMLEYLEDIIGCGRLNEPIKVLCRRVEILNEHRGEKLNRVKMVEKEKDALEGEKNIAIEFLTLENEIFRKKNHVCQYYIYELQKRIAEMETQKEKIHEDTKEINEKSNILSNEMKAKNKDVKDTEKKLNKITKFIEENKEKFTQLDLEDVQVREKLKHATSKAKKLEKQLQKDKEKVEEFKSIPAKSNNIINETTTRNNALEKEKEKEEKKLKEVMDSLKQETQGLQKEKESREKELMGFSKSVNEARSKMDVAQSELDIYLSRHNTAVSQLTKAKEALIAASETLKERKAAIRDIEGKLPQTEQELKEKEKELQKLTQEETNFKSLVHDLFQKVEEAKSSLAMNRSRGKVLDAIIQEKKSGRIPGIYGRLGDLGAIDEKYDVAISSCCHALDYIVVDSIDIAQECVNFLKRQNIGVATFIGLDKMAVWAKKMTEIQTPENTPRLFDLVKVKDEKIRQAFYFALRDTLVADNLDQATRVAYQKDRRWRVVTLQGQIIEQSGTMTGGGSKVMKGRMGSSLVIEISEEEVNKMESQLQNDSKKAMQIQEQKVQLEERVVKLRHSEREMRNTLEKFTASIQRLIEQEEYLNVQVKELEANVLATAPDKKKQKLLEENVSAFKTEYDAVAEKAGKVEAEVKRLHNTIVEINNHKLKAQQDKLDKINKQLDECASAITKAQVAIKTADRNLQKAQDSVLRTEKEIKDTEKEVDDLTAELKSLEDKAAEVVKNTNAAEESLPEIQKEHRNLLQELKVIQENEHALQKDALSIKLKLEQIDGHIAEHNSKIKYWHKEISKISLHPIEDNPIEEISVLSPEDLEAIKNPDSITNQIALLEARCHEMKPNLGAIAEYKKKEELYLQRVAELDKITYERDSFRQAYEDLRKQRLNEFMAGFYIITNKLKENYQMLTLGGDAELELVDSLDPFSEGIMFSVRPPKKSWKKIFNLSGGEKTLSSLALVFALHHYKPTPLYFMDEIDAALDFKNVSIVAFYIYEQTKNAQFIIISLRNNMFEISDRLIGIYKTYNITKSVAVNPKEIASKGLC

No constants are given. Whether binding was seen depends on the method and setting. In cells and extracts the contact can be indirect. Some binding calls cover weakened binding; strength is not graded here. For part of these data: Tags and fused reporters may be left off the sequences shown.

Test [1] deals with T1, GST-Nesprin-2-SMC (human) (UniProt Q8WXH0).
T1 sequence: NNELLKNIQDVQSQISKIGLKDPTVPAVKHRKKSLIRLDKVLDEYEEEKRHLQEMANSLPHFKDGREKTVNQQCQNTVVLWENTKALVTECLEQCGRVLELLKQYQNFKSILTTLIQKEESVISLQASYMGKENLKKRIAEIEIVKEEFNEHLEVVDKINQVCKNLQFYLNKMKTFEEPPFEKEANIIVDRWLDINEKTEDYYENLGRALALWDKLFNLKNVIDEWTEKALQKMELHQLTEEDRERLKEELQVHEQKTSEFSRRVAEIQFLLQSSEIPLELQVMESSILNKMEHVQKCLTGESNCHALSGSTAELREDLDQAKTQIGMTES
The experiment in a line: pull-down; GST-Nesprin-2-SMC or GST on Glutathione-Sepharose 4B beads incubated overnight with HaCaT cell lysate (50 mM Tris-HCl pH 7.5, 150 mM NaCl, 1% Nonidet P-40, 0.5% sodium deoxycholate); western blot; unsynchronized cells, and for SMC2 also cells in G0/G1 and enriched for S and M phase (RO-3306 or thymidine/Nocodazole); only the target purified.

The target of test [2] is SMC2 (human (endogenous in HaCaT)) (UniProt O95347). The experiment in a line: co-IP; immunoprecipitation from HaCaT cell lysates with mAb K20-478 (Nesprin-2) or SMC2 specific antibodies, protein A Sepharose, western blot; GFP antibodies as control; unsynchronized cells. For orientation: Immunoblotting shows a protein as a band on a membrane.
Test [3] deals with Nesprin-2 giant (human (endogenous in HaCaT)) (UniProt Q8WXH0). The description is as above.
Test [4] deals with T1, GST-Nesprin-2-SMC (human). The experiment in a line: pull-down; GST-Nesprin-2-SMC or GST on Glutathione-Sepharose 4B beads incubated overnight with HaCaT cell lysate (50 mM Tris-HCl pH 7.5, 150 mM NaCl, 1% Nonidet P-40, 0.5% sodium deoxycholate); western blot; unsynchronized cells, and for SMC2 also cells in G0/G1 and enriched for S and M phase (RO-3306 or thymidine/Nocodazole); only the target purified. The source holds these as a separate data set.

The target of test [5] is T1, GST-Nesprin-2-SMC (human). The experiment in a line: pull-down; GST-Nesprin-2-SMC or GST on Glutathione-Sepharose beads incubated overnight with lysates of COS7 cells expressing Myc-tagged polypeptides; western blot with Myc mAb 9E10; only the target purified.

Consider “CAP-H (kleisin γ, non-SMC condensin I complex subunit H) (from UniProt Q15003 1-741)”, for which, in test [1], the binding result was “binds”.

As for “Nesprin-2 giant (from UniProt Q8WXH0-1 1-6885)”, the binding result in test [2] is listed as “binds”.

SMC2 (from UniProt O95347 1-1197): the binding result in test [3] and in test [1] was “binds” each time.

SMC3 (from UniProt Q9UQE7 1-1217): the binding result in test [1] is reported as “no binding”.

On to SMC4 (from UniProt Q9NTJ3 1-1288), for which the binding result in test [3] and in test [1] was “binds” each time.

B1: CAP-H2 (kleisin β, non-SMC condensin II complex subunit H2) (protein, UniProt Q6IBW4 1-605)
chain: MEDVEARFAHLLQPIRDLTKNWEVDVAAQLGEYLEELDQICISFDEGKTTMNFIEAALLIQGSACVYSKKVEYLYSLVYQALDFISGKRRAKQLSSVQEDRANGVASSGVPQEAENEFLSLDDFPDSRTNVDLKNDQTPSEVLIIPLLPMALVAPDEMEKNNNPLYSRQGEVLASRKDFRMNTCVPHPRGAFMLEPEGMSPMEPAGVSPMPGTQKDTGRTEEQPMEVSVCRSPVPALGFSQEPGPSPEGPMPLGGGEDEDAEEAVELPEASAPKAALEPKESRSPQQSAALPRRYMLREREGAPEPASCVKETPDPWQSLDPFDSLESKPFKKGRPYSVPPCVEEALGQKRKRKGAAKLQDFHQWYLAAYADHADSRRLRRKGPSFADMEVLYWTHVKEQLETLRKLQRREVAEQWLRPAEEDHLEDSLEDLGAADDFLEPEEYMEPEGADPREAADLDAVPMSLSYEELVRRNVELFIATSQKFVQETELSQRIRDWEDTVQPLLQEQEQHVPFDIHTYGDQLVSRFPQLNEWCPFAELVAGQPAFEVCRSMLASLQLANDYTVEITQQPGLEMAVDTMSLRLLTHQRAHKRFQTYAAPSMAQP
For B1, the binding entry in test [4] is listed as “binds”.

B2: Nesprin-2-SMC (domain or fragment, human, UniProt Q8WXH0 1436-1766, looked up)
chain: NNELLKNIQDVQSQISKIGLKDPTVPAVKHRKKSLIRLDKVLDEYEEEKRHLQEMANSLPHFKDGREKTVNQQCQNTVVLWENTKALVTECLEQCGRVLELLKQYQNFKSILTTLIQKEESVISLQASYMGKENLKKRIAEIEIVKEEFNEHLEVVDKINQVCKNLQFYLNKMKTFEEPPFEKEANIIVDRWLDINEKTEDYYENLGRALALWDKLFNLKNVIDEWTEKALQKMELHQLTEEDRERLKEELQVHEQKTSEFSRRVAEIQFLLQSSEIPLELQVMESSILNKMEHVQKCLTGESNCHALSGSTAELREDLDQAKTQIGMTES
notes: Nesprin-2, human, SMC domain, aa 1436-1766, spectrin repeats 11-13; Calculated molecular weight 38.78 kDa (39 kDa); also called Nesprin-2-SMC domain; SMC polypeptide; source: E. coli XL-1 blue, purified (Glutathione-Sepharose 4B, released from GST by thrombin cleavage); not shown: GST, N-terminal, cleaved
As for B2, in test [5], the binding entry is listed as “binds”.
